The results in this text go back to the RNAGym collection of RNA variant scans (doi:10.1101/gad.245936.114).

Variants at the background level are over-represented here. A value given as a limit tells only on which side of the number the result lay.

The labels stand for the following.
B1: tRNA (parent)
chain: CUCUCGGUAGCCAAGUUGGUUUAAGGCGCAAGACUUUAAUUUAUCACUACGAAAUCUUGAGAUCGGGCGUUCGACUCGCCCCCGGGAGAUUUUUUCCUCGAGCAA

This data set covers variants of B1. Description: nonsense suppression (GFP-seq) (ratio to wild type); higher = more function; SUP4oc tRNA, yeast GFP reporter sort-seq. Put shortly: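 Yeast were grown in raffinose/galactose medium with 80 mg/L adenine, each strain bearing a genome-integrated ochre-suppressor tRNA variant from a ~3% random-mutation library, a galactose-driven GFP ochre reporter, and RFP. After sorting into GFP/RFP bins, every bin was sequenced on an Illumina platform at phred ≥30. The GFPSEQ value, a measure of nonsense suppression, is the weighted bin median GFP/RFP relative to the unmutated parent tRNA, using each variant's estimated cell share per bin as the weight. Only variants with ≥100 reads and ≥30 cells were included.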
Regarding U2A A13C C64U G66A, the nonsense suppression is ≤ 0.026.

On to U8C U20A C29G U76A, for which the nonsense suppression was ≤ 0.026.

In the case of C12G U55C, the nonsense suppression is ≤ 0.026.

Take G15C A62G G66U G78A A87U: the nonsense suppression was ≤ 0.026.

Regarding C12A U17A A33G, the nonsense suppression was ≤ 0.026.

As to A14U G59A G69A A74G, the nonsense suppression is ≤ 0.026.

C1U G67C: the nonsense suppression is ≤ 0.026.

On to G19A G25C, for which the nonsense suppression was ≤ 0.026.

On to G28U A60U U71G, for which the nonsense suppression is ≤ 0.026.

As for U35A C56G G73A C77U C79G, the nonsense suppression was ≤ 0.026.

On to A23C A74G, for which the nonsense suppression is ≤ 0.026.

U2G A13U G65A: the nonsense suppression was ≤ 0.026.

In the case of U20A A24C U76C, the nonsense suppression is ≤ 0.026.

Consider G7C A9C, for which the nonsense suppression is ≤ 0.026.

As for U17C U20G, the nonsense suppression came to 1.25.

For U22C C29G A87G, the nonsense suppression was ≤ 0.026.

In the case of A31U G59A C80U, the nonsense suppression is ≤ 0.026.

A13C G18A A54C U63A A74C G88A: the nonsense suppression was ≤ 0.026.

In the case of G61U G65C, the nonsense suppression was ≤ 0.026.

With A9C U20G U21G G86A, the nonsense suppression is ≤ 0.026.

For the variant U8G A30U G32C, the nonsense suppression was ≤ 0.026.

As for C3U U4G C12U G15A, the nonsense suppression was ≤ 0.026.

On to A31C C72U C75U, for which the nonsense suppression was ≤ 0.026.

For U2G A23G G66A, the nonsense suppression is ≤ 0.026.

Turning to A31U A87G, the nonsense suppression is ≤ 0.026.

As to A13U G25C G67A G85U, the nonsense suppression was ≤ 0.026.

Consider A62U C72G C77G, for which the nonsense suppression was ≤ 0.026.

For A24U U35G U55G C77A, the nonsense suppression was ≤ 0.026.

In the case of U17G U21G G69C G78U, the nonsense suppression was ≤ 0.026.

On to U35G C81U, for which the nonsense suppression is ≤ 0.026.

Regarding G6U C12U U76C C77G C79A, the nonsense suppression is ≤ 0.026.

On to A30G G32C U70C, for which the nonsense suppression is ≤ 0.026.

As to G32U C56G, the nonsense suppression was 0.207.

With U20A G78A, the nonsense suppression was found to be 0.0977.

In the case of A62C U70A A74U G85U, the nonsense suppression is ≤ 0.026.

As for G19U C83U, the nonsense suppression is ≤ 0.026.

Take U4A G69U: the nonsense suppression is ≤ 0.026.

For A9G A24G U55A C75A, the nonsense suppression is ≤ 0.026.

Take U2A A31C U57G U70C A87U: the nonsense suppression was ≤ 0.026.

Regarding A23C G88C, the nonsense suppression is ≤ 0.026.

In the case of A23C G88A, the nonsense suppression was ≤ 0.026.

Turning to U8C C64G, the nonsense suppression is ≤ 0.026.

As for C1A C11G G32A U55C, the nonsense suppression was ≤ 0.026.

Take C3U C5U C29U A74G: the nonsense suppression was ≤ 0.026.

G66C U70C U71G: the nonsense suppression is ≤ 0.026.

Regarding A74G C79U, the nonsense suppression was ≤ 0.026.

Take A24C U55A: the nonsense suppression is ≤ 0.026.

In the case of G26A U76C, the nonsense suppression is ≤ 0.026.

Consider G7U G28A C34U, for which the nonsense suppression was ≤ 0.026.

For G15A G18C U21G U58C, the nonsense suppression is ≤ 0.026.

Consider G15U U16A G19U A60G, for which the nonsense suppression is ≤ 0.026.

A54U G69U: the nonsense suppression was ≤ 0.026.

As to C1U G10U A62G G88C, the nonsense suppression is ≤ 0.026.

For C5G A23U G67U, the nonsense suppression was ≤ 0.026.

Consider U20A C34U G66U, for which the nonsense suppression was ≤ 0.026.

Turning to G61A A87C, the nonsense suppression is ≤ 0.026.

On to C3U G10U G15C, for which the nonsense suppression was ≤ 0.026.

As for U2G A30G U57A U63C, the nonsense suppression is ≤ 0.026.

G65A A74C: the nonsense suppression is ≤ 0.026.

For U55A U58A, the nonsense suppression is ≤ 0.026.

Regarding C1U U21A G28U C29A, the nonsense suppression is ≤ 0.026.

Consider A14U U21A A23G U55G, for which the nonsense suppression is ≤ 0.026.

G7A G59A U71G G73A G84A G85U: the nonsense suppression was ≤ 0.026.

With G7C U8C G32C G66C C80A, the nonsense suppression was ≤ 0.026.

G28C C79G G84A A89G: the nonsense suppression was ≤ 0.026.

With U63C G66U C72A C82U, the nonsense suppression was ≤ 0.026.

With A14G C81G, the nonsense suppression was ≤ 0.026.

For the variant C12A G59A C81U, the nonsense suppression was ≤ 0.026.

Regarding C11A U22G, the nonsense suppression was ≤ 0.026.

For U22G A31U, the nonsense suppression came to 0.0872.

For the variant A13G C75A C81A, the nonsense suppression is ≤ 0.026.

Take U4A C5A A9G C11U: the nonsense suppression is ≤ 0.026.

Turning to G26C U55C G78U, the nonsense suppression is ≤ 0.026.

G15A G78C: the nonsense suppression is ≤ 0.026.

U2G U58A G86A: the nonsense suppression was ≤ 0.026.

On to A9G G69U G73C, for which the nonsense suppression was ≤ 0.026.

As for U55C G66A G84C G85C, the nonsense suppression is ≤ 0.026.

As for C11G U16G U58A G61A G67C, the nonsense suppression is ≤ 0.026.

On to A31G C82U, for which the nonsense suppression came to 0.25.

Take C34U A54G G61U U70G U76A G84A: the nonsense suppression was ≤ 0.026.

Regarding G26U C29G C68G, the nonsense suppression is ≤ 0.026.

Regarding C1A G7U C11G U17G G25U, the nonsense suppression was ≤ 0.026.

As to C11G U16G A24G C56A A60G G86U, the nonsense suppression was ≤ 0.026.

With A14U U20A C34U U57A G85A, the nonsense suppression is ≤ 0.026.

Consider C34G A60C U63G A89C, for which the nonsense suppression was ≤ 0.026.

For the variant C27A C34A C56G A62C A89C, the nonsense suppression is ≤ 0.026.

For the variant G32U C75G, the nonsense suppression was ≤ 0.026.

Regarding G78A G86A, the nonsense suppression is ≤ 0.026.

In the case of A24G C79U, the nonsense suppression was determined as 0.0352.

G18U A62U: the nonsense suppression was ≤ 0.026.

As for U2G U16A C81G, the nonsense suppression was ≤ 0.026.

Regarding U4A G69C U71C G84C, the nonsense suppression is ≤ 0.026.

Take A24C C72G: the nonsense suppression was found to be 0.0618.

Regarding G59U A60G G61A A62U, the nonsense suppression is ≤ 0.026.

For the variant C1A C11G U21A U22C, the nonsense suppression is ≤ 0.026.

For G28C G73U, the nonsense suppression is 0.0322.

Consider G6U C12U A60G G84U, for which the nonsense suppression is ≤ 0.026.

For A31C C82A G88A, the nonsense suppression was ≤ 0.026.

On to C12U A33U U55G G69A U71C, for which the nonsense suppression is ≤ 0.026.

For C3U A60C G67U G86A G88C, the nonsense suppression was ≤ 0.026.

With C1G G15C, the nonsense suppression is ≤ 0.026.

Consider G19C U35C, for which the nonsense suppression is ≤ 0.026.

With U57A G85A G86A, the nonsense suppression was ≤ 0.026.

Take U22C A23C: the nonsense suppression is ≤ 0.026.

Take A33U C56G: the nonsense suppression is ≤ 0.026.

With C27A U70A, the nonsense suppression was ≤ 0.026.

C29U A33G C79G: the nonsense suppression was ≤ 0.026.

Consider A30G G32A A54C U70C G85U, for which the nonsense suppression was ≤ 0.026.

Consider U8A G67A C77U, for which the nonsense suppression was ≤ 0.026.

For the variant C12A U21A G69C U70A, the nonsense suppression was ≤ 0.026.

As to A9C U20C C75A, the nonsense suppression was 0.566.

Take C29U G65C G84A: the nonsense suppression is ≤ 0.026.

For the variant U63C C77G G88A, the nonsense suppression was ≤ 0.026.

Turning to A30G G69C, the nonsense suppression is ≤ 0.026.

On to U20A A74U, for which the nonsense suppression turned out to be 0.0745.

As to G10U U35G, the nonsense suppression was ≤ 0.026.

Regarding G6C U57A, the nonsense suppression was ≤ 0.026.

On to A14U G25C A33U U76C, for which the nonsense suppression is ≤ 0.026.

As to C3U A60C, the nonsense suppression was ≤ 0.026.

Regarding G32A A33G U71A C82G, the nonsense suppression was ≤ 0.026.

On to G15A C77G G85A G88U, for which the nonsense suppression was ≤ 0.026.

For A62G U70C, the nonsense suppression is ≤ 0.026.

With A9U A31G, the nonsense suppression is 0.193.

Regarding C12U C29U C79A, the nonsense suppression is ≤ 0.026.

On to G18A A33G C81U, for which the nonsense suppression was ≤ 0.026.

As for A74G, the nonsense suppression was ≤ 0.026.

For the variant U58A C72G, the nonsense suppression was ≤ 0.026.

For the variant A13G G73U C79A, the nonsense suppression was ≤ 0.026.

On to C5U U17C, for which the nonsense suppression was determined as 0.0495.

With A13C G32C U55G G85U, the nonsense suppression is ≤ 0.026.

Regarding C1A A14U A33C C79A, the nonsense suppression was ≤ 0.026.

On to G7C U21A G59C G84U, for which the nonsense suppression was ≤ 0.026.

As to C3U G18C U63C, the nonsense suppression was ≤ 0.026.

On to U16G G26C U58G, for which the nonsense suppression is ≤ 0.026.

Turning to U71G C79G, the nonsense suppression was ≤ 0.026.

For the variant G18A C27A, the nonsense suppression is ≤ 0.026.

In the case of G6A C72G, the nonsense suppression was ≤ 0.026.

Turning to C3A A9G U22C C29G, the nonsense suppression is ≤ 0.026.

On to A14U G85U A87C, for which the nonsense suppression was ≤ 0.026.

Turning to G26U G88A, the nonsense suppression is ≤ 0.026.

With G7C A14U A23C C83A, the nonsense suppression is ≤ 0.026.

On to C5A A9G C81A, for which the nonsense suppression is ≤ 0.026.

Regarding C12A G19C U20G C72U, the nonsense suppression was ≤ 0.026.

With G6A G86C, the nonsense suppression was ≤ 0.026.

As for G85A, the nonsense suppression stood at 0.982.

Consider G69A C79U, for which the nonsense suppression is ≤ 0.026.

For U20G G26U C75U, the nonsense suppression is ≤ 0.026.

As to C34G C68G, the nonsense suppression is ≤ 0.026.

Regarding C1A C12U A13C U22G U55C U63C, the nonsense suppression was ≤ 0.026.

Regarding G66C U70G, the nonsense suppression is ≤ 0.026.

On to U2A C11A U71G, for which the nonsense suppression was ≤ 0.026.

For the variant C1A C29G G61U C75A, the nonsense suppression was ≤ 0.026.

Take U4G U21A G25U A31U A87C: the nonsense suppression was ≤ 0.026.

As to A13U C64U, the nonsense suppression stood at 0.0285.

Consider A30G U35G U57C, for which the nonsense suppression is ≤ 0.026.

As to C56A A74G, the nonsense suppression is ≤ 0.026.

Regarding U4G G10U U21G U63C G69U, the nonsense suppression is ≤ 0.026.

Turning to U2A C79A, the nonsense suppression is ≤ 0.026.

In the case of C5A U17G C68G, the nonsense suppression is ≤ 0.026.

For A31U C56U U70C G88U, the nonsense suppression was ≤ 0.026.

Take U17C A33C A54G G66C: the nonsense suppression was ≤ 0.026.

For the variant U8G A14G U17C G18U A60C G67U, the nonsense suppression was ≤ 0.026.

As for G32A U57G U70C, the nonsense suppression is ≤ 0.026.

U8A A30U: the nonsense suppression stood at 0.0393.

As to C11G A13G A30U C77U G86A, the nonsense suppression is ≤ 0.026.

For C29G U57G C83G, the nonsense suppression is ≤ 0.026.

Consider C29G G69C G88U, for which the nonsense suppression was ≤ 0.026.
